Common to all, as to test: Primary Screen for Target Class Profiling of Small Molecule Inhibitors of Methyltransferases
Assay [1] deals with Glycine N-methyltransferase (Homo sapiens) (UniProt Q14749). The note with it: purified enzyme, MTase-Glo SAH luminescence; measured here: GNMT inhibition; at 40 µM; stronger effect = lower value. A digest of the protocol: (§1)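 Each enzyme was assayed with SAM and its substrate. SAH formation detected by MTase-Glo luminescence; single-point 40 uM screen[…].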
The target of assay [2] is Guanidinoacetate N-methyltransferase (Homo sapiens) (UniProt Q14353). The settings on record: purified enzyme, MTase-Glo SAH luminescence; measured here: GAMT inhibition; at 40 µM; stronger effect = lower value. In outline:
as §1

For assay [3], the target named is Histamine N-methyltransferase (Homo sapiens) (UniProt P50135). The settings on record: purified enzyme, MTase-Glo SAH luminescence; measured here: HNMT inhibition; at 40 µM; stronger effect = lower value. In outline: as §1
Assay [4] concerns the target Nicotinamide N-methyltransferase (Homo sapiens) (UniProt P40261). The note with it: purified enzyme, MTase-Glo SAH luminescence; measured here: NNMT inhibition; at 40 µM; stronger effect = lower value. A digest of the protocol: as §1
The target in assay [5] is Phenylethanolamine N-methyltransferase (Homo sapiens) (UniProt P11086). The note with it: purified enzyme, MTase-Glo SAH luminescence; measured here: PNMT inhibition; at 40 µM; stronger effect = lower value. A digest of the protocol:
as §1

The other results are listed elsewhere or left out. These are further read-outs of the screen, such as a control signal, another cell line or another target. No call is given for them.
% is set by controls: 0 for no effect and ±100 for the full control effect.

`Cc1ccc(CCN2C(=O)CSc3c(c4ccccc4n3C)C2C(=O)NCc2ccc(F)cc2)cc1` (stereo not given): the activity change, negative = inhibition in assay [1] is -5.88%; in assay [2] it was 2.64%; in assay [3] it was 2.4%; in assay [4] it was -3.69%; in assay [5], 0.652%.
In the case of `O=C(c1ccnnc1)N1CCC2(CCN(Cc3ccccn3)CC2)C(CO)C1` (stereo not given), the activity change, negative = inhibition in assay [1] is -7.01%; in assay [2], -7.54%; in assay [3], -4.23%; in assay [4], -10.3%; in assay [5] it was -11.1%.
As for `Fc1ccc(-c2nc(C3CCNCC3)sc2-c2ccnc(NC3CC3)n2)cc1`, the activity change, negative = inhibition is -1.48% in assay [1]; 10.1% in assay [2]; -4.46% in assay [3]; -44.4% in assay [4]; 1.17% in assay [5].
For `Oc1ccccc1-c1cc(-c2ccccc2F)[nH]n1` the same measures were -0.217%, 7.1%, 8.08%, -8.99% and 4.73%.
As for `COc1cc2ncnc(Nc3ccc(O)c(Br)c3)c2cc1OC`, the activity change, negative = inhibition in assay [1] was -24%; in assay [2] it was -3.34%; in assay [3], -25%; in assay [4], -22%; in assay [5] it was -19%.
As to `CN1CC[C@H]2CN(C(=O)c3ccccc3-n3cccn3)C[C@@]2(C(=O)O)C1`, the activity change, negative = inhibition in assay [1] is -7.77%; in assay [2] it was -7.68%; in assay [3] it was -2.91%; in assay [4] it was -10.5%; in assay [5] it was 1.87%.
For `COc1ccc(CCN2C(=O)c3cc4ccccc4n3CC2(C)C(=O)NCc2ccccc2)c(OC)c1` (stereo not given) the same measures were 5.73%, 3.97%, 9.55%, 10.1% and 1.92%.
With `Cc1nc(C)c(C(=O)NCCc2ncc(C)n2C2CC2)s1`, the activity change, negative = inhibition is -4.32% in assay [1]; -3.61% in assay [2]; -4.8% in assay [3]; -6.14% in assay [4]; 0.731% in assay [5].
For `O=C1NCCCCCN(Cc2cn[nH]c2-c2ccc(F)cc2)[C@H]2CCC[C@@H]12` the same measures were -12.9%, -5.15%, -7.72%, -16.6% and -10.4%.
Take `CC1(C(=O)NC2CCCC2)Cn2c(cc3sccc32)C(=O)N1Cc1cccs1` (stereo not given): the activity change, negative = inhibition in assay [1] was -2.15%; in assay [2], -1.01%; in assay [3], -1.07%; in assay [4], -13.8%; in assay [5], -1.22%.
In the case of `COc1ccc(NS(=O)(=O)c2cc3c(cc2C)n(C)c(=O)n3C)cc1`, the activity change, negative = inhibition in assay [1] is 11.1%; in assay [2], 0%; in assay [3] it was 11.3%; in assay [4] it was 2.91%; in assay [5], 6.66%.
`COc1cc(-c2cc(-c3cccc(O)c3)cnc2N)cc(OC)c1OC`: the activity change, negative = inhibition in assay [1] was -5.41%; in assay [2], 2.04%; in assay [3], -2.92%; in assay [4], -15.2%; in assay [5], 1.17%.
For `CCCn1c(=O)c2cc(F)ccc2n2c(SCc3ccccc3C)nnc12`, the activity change, negative = inhibition in assay [1] was -21.4%; in assay [2], 0.109%; in assay [3], 4.72%; in assay [4], -2.75%; in assay [5], 2.36%.
Turning to `O=C1c2cc3sccc3n2CC(C(=O)NC2CCCCCCC2)(c2ccccc2)N1Cc1ccccc1` (stereo not given), the activity change, negative = inhibition was -1.24% in assay [1]; 3.29% in assay [2]; -1.88% in assay [3]; -0.209% in assay [4]; -4.39% in assay [5].
As for `CCc1cc2c(cc3n2CC(C)(C(=O)NC2CCC(C)CC2)N(c2cc(C)ccc2C)C3=O)s1` (stereo not given), the activity change, negative = inhibition in assay [1] was 2.49%; in assay [2] it was 1.07%; in assay [3] it was 2.1%; in assay [4], 4.17%; in assay [5], 0.229%.
For `CCCn1c(=O)c2ccccc2n2c(=O)n(CC(=O)NC3CCCCC3)nc12` the same measures were 1%, 0%, 5.08%, -6.18% and 0.941%.
For `CN(C)Cc1nnc(C2CC(NC(=O)Cc3noc4ccccc34)C2)n1C` (stereo not given), the activity change, negative = inhibition is -4.7% in assay [1]; -7.67% in assay [2]; -2.65% in assay [3]; -12.7% in assay [4]; 7.8% in assay [5].
Turning to `C[C@H]1/C=C/C=C/C=C/C=C/C=C/[C@@H](O)[C@H](C(=O)O)[C@H](O)C[C@H](O)CCC[C@H](O)C[C@H](O)C[C@H](O)[C@@H](C)C(=O)O[C@@H]1C`, the activity change, negative = inhibition in assay [1] was 0%; in assay [2], 7.69%; in assay [3] it was 12.6%; in assay [4], -4.59%; in assay [5], 5.71%.
As for `Cc1ccc(CNC(=O)C2(C)Cn3nc(C(=O)NCCCN4CCCCC4)cc3C(=O)N2C)cc1` (stereo not given), the activity change, negative = inhibition is 6.93% in assay [1]; 0.748% in assay [2]; -18.9% in assay [3]; 4.97% in assay [4]; 5.22% in assay [5].
Take `COc1ncccc1-c1cc2c(nc1OC)nc(CCc1ccccc1)n2C`: the activity change, negative = inhibition in assay [1] was -21.5%; in assay [2], -6.53%; in assay [3], -6.77%; in assay [4], -27.6%; in assay [5], -11.8%.
With `COc1ccc(CNC(=O)C[C@@H]2C[C@H]3O[C@H](CNC4CCNCC4)[C@@H](O)[C@H]3O2)cc1`, the activity change, negative = inhibition in assay [1] was -5.72%; in assay [2], -8.4%; in assay [3], -5.55%; in assay [4], -10%; in assay [5], -4.88%.
For the compound `CC(CN1C(=O)c2cc3occc3n2CC1(C)C(=O)NC1CCCCCCC1)c1ccccc1` (stereo not given), the activity change, negative = inhibition is 0.752% in assay [1]; 0% in assay [2]; 3.12% in assay [3]; 1.23% in assay [4]; -15.1% in assay [5].
On to `Cc1cc(C)c(S(=O)(=O)NCCc2n[nH]c(Cc3ccc(F)cc3)n2)cc1C`, for which the activity change, negative = inhibition in assay [1] is 15.9%; in assay [2], 0%; in assay [3] it was 8.87%; in assay [4], -1.03%; in assay [5], 6.82%.
Consider `CN(C)Cc1ccc(-c2cnn3c(-c4cccc(NC(=O)c5cccc(C(F)(F)F)c5)c4)ccnc23)cc1`, for which the activity change, negative = inhibition in assay [1] was 1.66%; in assay [2] it was 16.9%; in assay [3] it was -45.6%; in assay [4], -9.78%; in assay [5] it was 4.03%.
With `COc1cccc(-c2noc(CCCc3nc(C4CCOC4)no3)n2)c1` (stereo not given), the activity change, negative = inhibition in assay [1] was -4.91%; in assay [2], -10.1%; in assay [3] it was -1.02%; in assay [4], -17.3%; in assay [5], -3.89%.
For `CC1=C(C)C(=O)OC(C(C)C2CCC3C4C5OC5C5(O)CC(OC6OC(CO)C(OC7OC(C)C(O)C(O)C7O)C(O)C6O)CC(O)C5(C)C4CCC23C)C1` (stereo not given) the same measures were 0.497%, -3.08%, 5.6%, -15.2% and 4.21%.
As to `CN1C(=O)c2cc(C(=O)NCc3cccs3)nn2CC1(C)C(=O)NCc1ccc(F)cc1` (stereo not given), the activity change, negative = inhibition in assay [1] is 3.97%; in assay [2] it was 4.88%; in assay [3], -1.07%; in assay [4], 2.64%; in assay [5], 0.777%.
`COc1ccc(C2=NOC3(CCCN([S+](=O)([O-])c4cccc(C(F)(F)F)c4)C3)C2)cc1` (stereo not given): the activity change, negative = inhibition was -2.35% in assay [1]; -1.27% in assay [2]; 0.008% in assay [3]; -1.38% in assay [4]; -4.29% in assay [5].
As to `CC[C@@H]1C(=O)O[C@]23C=C[C@@H]4C(C(=O)OC)=CO[C@H](O[C@@H]12)[C@@H]43`, the activity change, negative = inhibition was -6.32% in assay [1]; -8.76% in assay [2]; 1.68% in assay [3]; -18.3% in assay [4]; -11.2% in assay [5].

Values taken from PubChem BioAssay AID1745853 (National Center for Advancing Translational Sciences (NCATS), 2022).
